± gives the standard deviation of the averaged measurements. The list shows a part of the results.
What follows are sequences tested on PfAP2-G AP2 domain (GST-tagged) (assay: gcPBM binding intensity (ln(normalized median fluorescence intensity)); higher = stronger DNA binding).
Outline: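 For binding intensity, the highest Masliner-normalised natural-log median intensity across replicate spots of either probe orientation was taken. Protein bound to the array was stained with Alexa488 anti-GST antibody and scanned at 488 nm. The protein, GST-tagged P. falciparum DNA-binding domains from E. coli at about 25 μg on average, had been applied for 1 h to an Agilent 4 × 180k array of primer-extended double-stranded 36-bp intergenic genomic probes and negative controls.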

| Sequence | gcPBM binding intensity (ln) |
| --- | --- |
| TTTTTTATTTTTTACATATTTAGCTCATATTTATAT [GTGCAC_negctrl_site491] | 9.84 ± 0.028 |
| TTTTATGATATTTACACACAAACGTGAGATAGCTCA [CACACA_site2311] | 10.06 ± 0.092 |
| AATATAATATCTATAATATAAAAAAAACAAAAAAAA [CACACA_negctrl_site875] | 9.635 ± 0.092 |
| ATACACATAACATATATATATATATATATATATATC [CACACA_negctrl_site278] | 9.73 ± 0.057 |
| TATATATATATAAACGCATGTAATTTATACACACAT [TGCATGCA_site946] | 10.1 ± 0.13 |
| ATCTTTCCTTTTGCATGTACATATGGAAATACTTTT [XGTACX_site6995] | 11.2 ± 0.73 |
| ATAATTAAGTTATGTGTGCACTGTTAAAAATAAATG | 10.8 ± 0.42 |
| TTCTTCAACAAAAAAATAAAAATAAAATAATAAAAA [GTGCAC_negctrl_site619] | 9.63 ± 0.11 |
| ATATTTTTATATAATGAACACACATATTATATCATT [CACACA_site8446] | 10 ± 0.23 |
| TAAAAGGATACATATACACACATATATATATATATA [CACACA_site2791] | 10.3 ± 0.4 |
| TTTAAAAAATTATATTCACACACATACACATATATA [CACACA_site8076] | 10.1 ± 0.21 |
| ATCCGTGTCTGAAATACACACATGACAATGTGAATG [CACACA_site6556] | 10.1 ± 0.099 |
| TATATATAAATAAACACACACAAATATAATAAAAAA [CACACA_site3526] | 9.87 ± 0.17 |
| ATAATGTGTTTGGTATTCTTGATAGATAGTTTTGTG [CACACA_negctrl_site68] | 10.18 ± 0.071 |
| TTTATAATAAAAAATACATGCAGTTATATATAATAA [TGCATGCA_site654] | 9.96 ± 0.014 |
| ATATTGAAAATTTGAAGTACATCTAAATATATTATT [XGTACX_site7817] | 11.4 ± 1 |
| TATTTTACATAAAAGAAAAAAAAAAAAAAAAAAAAA [CACACA_negctrl_site1460] | 9.48 ± 0.28 |
| TTTTAAAAGGTAAAATGTACATATATAATATATACA [XGTACX_site1222] | 11 ± 0.56 |
| ATTCTATTATCCTTTGCACACAAAATAAATGAAAAA [CACACA_site3030] | 10.3 ± 0.52 |
| TATAAAAAAATAATAAAATAATAAAATATATAAATA [TGCATGCA_negctrl_site394] | 9.34 ± 0.16 |
| TTTTTTCAATATTATATCCAAAAATATTTGTAAATA [TGCATGCA_negctrl_site596] | 9.88 ± 0.3 |
| ATTTTTATTTTTTTTGTGCACATTTTCATTTTCTAT [GTGCAC_site9580] | 10.54 ± 0.085 |

| Sequence | gcPBM binding intensity (ln) |
| --- | --- |
| CCTTCCTTGAATTTTACATGCAAAAAATTATAAAAC [TGCATGCA_site663] | 9.96 ± 0.17 |
| TATATATTATATATTTGTACATATATATAAAAACTT [XGTACX_site449] | 10.7 ± 0.4 |
| TTTTTTTTTTTTTTTTGTACTTATAAAATAACATGT [XGTACX_site134] | 11.3 ± 1.2 |
| TAATACTTAGAGAAAAGTACGTATGAACTTATGTAA [XGTACX_site5504] | 11.1 ± 0.54 |
| TATTAATACGGACACACACACACACTAGATAAAATA [CACACA_site4295] | 11.4 ± 0.9 |
| AAAAAAAAAAAAAAAAGTACATATATATATATAATT [XGTACX_site4437] | 11.5 ± 0.86 |
| AGTCCTTACACATATATTAAATATGTGTATATATAT [XGTACX_negctrl_site336] | 10.1 ± 0.13 |
| TTTTGTTTAGTGTATTGTACAATATATCTTTATTTT [XGTACX_site5163] | 10.9 ± 0.51 |
| TATTTAAATACTGACGCATGCATAAGGAGTAATAGT [TGCATGCA_site465] | 10.4 ± 0.18 |
| AAACATTTATGAAGGTGTACAAAAATGAATTAAAAA [XGTACX_site7035] | 11.3 ± 0.8 |
| TTTTAGCTATTTTAATATAATGAAGCAAAAAATAAA [TGCATGCA_negctrl_site576] | 9.735 ± 0.078 |
| ATAATAAATTCTACGCGTACAAAACCATGAACATTA [XGTACX_site7505] | 11.7 ± 1.1 |
| TTTATTAATAAAAAGGTGCAATCAGGAAAAATTATC [GTGCAC_site9626] | 10.4 ± 0.31 |
| ATCCTTTATAAATAAGTGCATATAAAAAATAATATT [GTGCAC_site9759] | 10.1 ± 0.3 |
| ACACATATGTATATATGTACTTATATATATATATAT [XGTACX_site8632] | 11.3 ± 0.8 |
| AATTATATATAAAAAGTGCAAAACGATAATTCATCA | 10.12 ± 0.035 |
| TCATATTCCAAAAAAAAAAAAAAAAAAAAAAAAATA [CACACA_negctrl_site1293] | 9.66 ± 0.3 |
| AATATATATATATTATGTACACATAGAAATATATTA [XGTACX_site3874] | 11.3 ± 0.76 |
| ATGTATTACTTAAATATATGAAACATATTACTTTTA [CACACA_negctrl_site496] | 9.63 ± 0.16 |
| AAAAAAAAAATTTTCGTGCACATAAGAAAATTTAAA [GTGCAC_site9788] | 10.3 ± 0.33 |
| ATAGTATATCAAAATTTGTAAATCATTCTCAATAAA [CACACA_negctrl_site430] | 9.74 ± 0.099 |
| ACATTGTTGGTGTTAGTGCATTGGTAAATATTATAT | 10.3 ± 0.18 |

| Sequence | gcPBM binding intensity (ln) |
| --- | --- |
| AAAAAAAAAAAAAAAACACACATATCTGTATTTATA [CACACA_site5760] | 10.3 ± 0.16 |
| CATACATACAAACACACACACATATAAATACATACA [CACACA_site4625] | 9.89 ± 0.014 |
| CACACGTAAAAGTATAATATAAAAAAGGTATACACT [CACACA_negctrl_site127] | 10.21 ± 0.049 |
| TATTTAAAGATATATACACACATTTGATATTATTAT [CACACA_site6509] | 9.875 ± 0.035 |
| ATAATATATGAAAAAACGATTTTTTCATTTTAAATA [XGTACX_negctrl_site146] | 9.91 ± 0.16 |
| TTTATAAACAAATGAACACACAAACATATTTATATA [CACACA_site7478] | 9.98 ± 0.085 |
| ACCTACATACATATGTGTACTTATTTGTATTCACTG [XGTACX_site7124] | 11.5 ± 0.66 |
| TTTACATATTTATATACACACTTTTGCGTGTCTGGT [CACACA_site4750] | 10.03 ± 0.021 |
| TCCATATATATTATGTGTACATATTATATATATAAA [XGTACX_site7525] | 11.5 ± 0.9 |
| TTTAAATATTTTAACACACTCATATTTAGGTTACAA [CACACA_site5685] | 10.02 ± 0.078 |
| TAATCCATAAGAAGCACACACATATAAATATATTTT [CACACA_site6774] | 9.88 ± 0.028 |
| AAACTTGACGGACACACACACACATATATAAAAAAA [CACACA_site4577] | 11.3 ± 0.84 |
| ATATATAAATAAATAGTGCATTTTAATATTTAACGT | 9.925 ± 0.049 |
| ATATATAAAATATATTGTACATTAACATATATATTT [XGTACX_site2055] | 10.7 ± 0.43 |
| GTAATATTATATAGTTGTACTTTTTTTTTATTATAT [XGTACX_site483] | 11.5 ± 1 |
| CAATATAAAAAACACACGCACACAAAAAAAAAAAAA [CACACA_site3521] | 10.2 ± 0.49 |
| AGTAAAAGAAAGCACACACACATGTATATATGTATG [CACACA_site3858] | 9.96 ± 0.11 |
| AATATCATCAAACGCACACATACATAAATATATTAT [CACACA_site2174] | 10.04 ± 0.092 |
| GTTCTTTCAAGTTATACACACCAAAAAAAAAAAAAA [CACACA_site7435] | 10.1 ± 0.35 |
| TTTCTTTATTTTTTTTTTTTTTTTTTTCCTTTTTTT [TGCATGCA_negctrl_site231] | 9.71 ± 0.51 |
| TGTTATATTTGTGCGTGTACACATTTGAAAAAATAT [XGTACX_site3796] | 11.8 ± 1.1 |
| AACGGGGCCAAGAAATATAAATAATCAAAACAAAAA [XGTACX_negctrl_site320] | 10.5 ± 0.7 |

| Sequence | gcPBM binding intensity (ln) |
| --- | --- |
| TGTGCACGCATATACACACACAAATACAATGATAAA [CACACA_site6656] | 10.4 ± 0.43 |
| ATAATACAAAATACATGTACAAATATTTTTCATATT [XGTACX_site1721] | 10.9 ± 0.52 |
| AGTGTGTGTGCGTATAGTACATATACATATATACAC [XGTACX_site6882] | 11.2 ± 0.67 |
| AAATGAATAAAATTTATTTATAAAAGAAAAATCACA [GTGCAC_negctrl_site225] | 9.61 ± 0.23 |
| AATTCTTTCATATATTGTACGTATTCCCATAAAATA [XGTACX_site5923] | 11.6 ± 0.89 |
| TAGTACACACAAAATACATGCGGGGTTTAATATTTA [TGCATGCA_site576] | 10.7 ± 0.33 |
| TTGTCATTTATAAAATGTACGTGTGTATATATTTAA [XGTACX_site5000] | 11.2 ± 0.67 |
| TTGCCATTAATTTATACACACACATTTTAATTTTTT [CACACA_site8150] | 10.07 ± 0.099 |
| CAAATATATATGTTCACACATATAATTATTGTGAAA [CACACA_site4190] | 9.835 ± 0.021 |
| TCAATAGTTACTAGTACATGCAAAAATAAACCTATA [TGCATGCA_site85] | 11.2 ± 0.88 |
| AAGAAAATAAAATAAAAAAAAAAATAAAAAAAATAA [TGCATGCA_negctrl_site516] | 9.17 ± 0.099 |
| GTATGTTTAATTTTAGTGCAATTATAAATATTTTAA [GTGCAC_site9531] | 10.1 ± 0.21 |
| TTTTAAAGCATATCATATAAAGAACATGACATAGGA [CACACA_negctrl_site630] | 9.95 ± 0.28 |
| AACATTTTTAAATATATAAAAATATATATATATATA [XGTACX_negctrl_site551] | 9.74 ± 0.25 |
| TTATATTTATGATACACACACGTATATTCACATACA [CACACA_site6354] | 10.3 ± 0.16 |
| ATTTTTTTTTTTTCCTTACACACATATTTCATTTTA [CACACA_site748] | 10.1 ± 0.2 |
| TCTTTATATATATATATATGTGTGAATGTTAAGTAT [XGTACX_negctrl_site135] | 10.1 ± 0.21 |
| AAATTGTCTGCATATAGTACATAAATATATTAATAT [XGTACX_site4557] | 10.9 ± 0.57 |
| ATATATATATATATAGTGCATAATGTTTTAATAGAT | 10.1 ± 0.27 |
| TATAATATATTTATATGTACTTATTTATTTATATAT [XGTACX_site6519] | 11.4 ± 0.95 |
| GAGTTTATTCTTTTTATACACACCTTATTTGATTAA [CACACA_site735] | 10.03 ± 0.057 |
| TATTATTTTATGAGACATAAAAAAAAAAAAAAAAAA [CACACA_negctrl_site1534] | 9.81 ± 0.48 |
